These results are taken from the supplement of paper PMC11417369.

± gives the standard deviation of the averaged measurements. The list shows a part of the results.

The assay relates to PfAP2-I AP2 domain 3 (GST-tagged). The assay can be described thus: gcPBM binding intensity (ln(normalized median fluorescence intensity)); higher = stronger DNA binding. A digest of the protocol: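 Binding of GST-tagged P. falciparum DNA-binding domains, expressed in E. coli and used at about 25 μg on average, was carried out for 1 h in 1× PBS containing 1% milk, 0.2 mg/ml BSA, 0.5% salmon testes DNA and 0.03% Triton X-100. The target was an Agilent 4 × 180k array of primer-extended double-stranded 36-bp intergenic genomic probes plus negative controls, read with Alexa488 anti-GST antibody at 488 nm. Binding intensity is the highest Masliner-normalised natural-log median intensity across replicate spots of either probe orientation.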
For AAGGAATGCATATAGGTGCTACACATAAAAATAAAA, the “gcPBM binding intensity (ln)” value was found to be 8.99 ± 0.76.

Take “TTAAGTAGTACATACACACACATATACAAAAAGAAA [CACACA_site3972]”: the “gcPBM binding intensity (ln)” value is 8.17 ± 0.028.

Regarding “TACTTTTTTCCTATTATGTTTCTTATTTTTATAAAT [XGTACX_negctrl_site561]”, the “gcPBM binding intensity (ln)” value turned out to be 8.02 ± 0.61.

Consider “TTTTTTTTTGAAAAAAGTACTTAATTTTTAAGAAGA [XGTACX_site3591]”, for which the “gcPBM binding intensity (ln)” value was determined as 7.58 ± 0.38.

As to “TCTAATAATAAATACACACACATATATATTTATATA [CACACA_site5169]”, the “gcPBM binding intensity (ln)” value came to 7.63 ± 0.39.

With “TATATATATTAAAAAGTGCATTATTCATATTATATA [GTGCAC_site9400]”, the “gcPBM binding intensity (ln)” value is 11.1 ± 0.73.

Regarding “TTACAATTTAATATATGTACATATTTGTGATTTATC [XGTACX_site2911]”, the “gcPBM binding intensity (ln)” value amounted to 7.94 ± 0.13.

For “TATAATGTTAAATAATGTACATATATTTTTTTTTTT [XGTACX_site4722]”, the “gcPBM binding intensity (ln)” value is 7.53 ± 0.35.

For “AAAATATCTTGTTACTGTACAAATATAAATAAATAC [XGTACX_site3684]”, the “gcPBM binding intensity (ln)” value amounted to 7.84 ± 0.59.

Consider “TTTATTAATAATTATACACACATATAAAATGAATAA [CACACA_site1359]”, for which the “gcPBM binding intensity (ln)” value was determined as 7.64 ± 0.39.

As to “AATAATAACATACAGACACACACGTAAAAGCACGTG [CACACA_site253]”, the “gcPBM binding intensity (ln)” value was determined as 9.3 ± 0.33.

“TTTATATATTAATATGCACACACAAGAAGTAATTAT [CACACA_site9045]”: the “gcPBM binding intensity (ln)” value was found to be 9.12 ± 0.071.

For “ATATATACGTATGAATGTATATTTGTTTGAATTTTT [CACACA_negctrl_site524]”, the “gcPBM binding intensity (ln)” value turned out to be 7.43 ± 0.5.

“AATGGGTAAACATACACACACACATATATATATATA [CACACA_site1991]”: the “gcPBM binding intensity (ln)” value is 9.44 ± 0.29.

For the sequence “AGTAAAAAAAAAAAAAAAAAAAAAAAAAAAAAAAAA [GTGCAC_negctrl_site147]”, the “gcPBM binding intensity (ln)” value stood at 8.38 ± 1.

Turning to “TATTAATATTTTTGTTGTACTTAAAAATGATGGTAG [XGTACX_site3501]”, the “gcPBM binding intensity (ln)” value worked out at 8 ± 0.028.

For the sequence “CATATACACGAACACACACACATATAAATAAATATA [CACACA_site6379]”, the “gcPBM binding intensity (ln)” value amounted to 8.045 ± 0.078.

In the case of “TATTATTTTAATTATTCACACATTATTATAAAAATT [CACACA_site5538]”, the “gcPBM binding intensity (ln)” value was determined as 7.65 ± 0.4.

For the sequence “GGAATATTAAAAAAATGTACAAAAAATAATATCCAT [XGTACX_site2596]”, the “gcPBM binding intensity (ln)” value amounted to 7.84 ± 0.64.

On to “AACAAAGTCATACATACATACATATATATATATATA [GTGCAC_negctrl_site632]”, for which the “gcPBM binding intensity (ln)” value stood at 9.34 ± 0.55.

Take “TCAATAATAAAAAACACACACAAAAAAAAATAATTA [CACACA_site2798]”: the “gcPBM binding intensity (ln)” value was 7.46 ± 0.67.

For “ATAATACATACATACATACACACATATATATATATT [CACACA_site3576]”, the “gcPBM binding intensity (ln)” value was 8.1 ± 0.51.

Take “TATTGTATTTCATATTGTACTAAAAAAAAAAAAAAG [XGTACX_site6694]”: the “gcPBM binding intensity (ln)” value came out at 7.86 ± 0.11.

For “AAAAAAAAAAAAAAAACACACATACACATATATTTT [CACACA_site7768]”, the “gcPBM binding intensity (ln)” value was 8.71 ± 0.35.

“TATATTATTTATAGTAGTACATAAAATATAAATATT [XGTACX_site4417]”: the “gcPBM binding intensity (ln)” value is 7.64 ± 0.26.

For “TAAAAAAAAAAAAAAACACACATATAAATATTTATA [CACACA_site6702]”, the “gcPBM binding intensity (ln)” value came to 7.27 ± 0.37.

As for “ATAAGCATACATATTACACACATATAATATATATAT [CACACA_site2487]”, the “gcPBM binding intensity (ln)” value amounted to 8.695 ± 0.035.

Consider “TACATATATATATATGAACACACAAAAAGAATATTT [CACACA_site8421]”, for which the “gcPBM binding intensity (ln)” value was 7.85 ± 0.68.

For the sequence “TTTTATGAGAAACACACACACAAAAAAAAAAAAAAA [CACACA_site4129]”, the “gcPBM binding intensity (ln)” value was 8.03 ± 0.67.

Consider “TCTTACTAATTTATGGGGACTTATCACCTATTCAGT [CACACA_negctrl_site652]”, for which the “gcPBM binding intensity (ln)” value was 7.74 ± 0.75.

On to “AGTGGATAAATTTATTCACACATTTTTTTTTTTTTT [CACACA_site5914]”, for which the “gcPBM binding intensity (ln)” value is 9.78 ± 0.42.

Consider “CATGAATCCTAATAATGTACATAAGAATTCATAATG [XGTACX_site1607]”, for which the “gcPBM binding intensity (ln)” value is 7.58 ± 0.5.

With “ACATACATATATTTATGTACATATATATTTATGATT [XGTACX_site6485]”, the “gcPBM binding intensity (ln)” value amounted to 7.63 ± 0.28.

As to “AATTTATATTTATGTGCATGTAATAACTGTATATAA [TGCATGCA_site349]”, the “gcPBM binding intensity (ln)” value worked out at 8.41 ± 0.45.

Take “AAAAAAAGATTATACACACACATATATAAACATACA [CACACA_site4553]”: the “gcPBM binding intensity (ln)” value came out at 7.78 ± 0.33.

In the case of “TTTTGGTGTATAGTATTAATATAAAATAATTATATT [CACACA_negctrl_site47]”, the “gcPBM binding intensity (ln)” value worked out at 7.82 ± 0.55.

For “ATTTTTTTTTCTTGTACACACTATTTTATAATTTTA [CACACA_site6102]”, the “gcPBM binding intensity (ln)” value came to 8.41 ± 0.54.

Take “TTAGCTTATCATTACTGTACTTTATTCATATATATG [XGTACX_site8008]”: the “gcPBM binding intensity (ln)” value was 7.89 ± 0.54.

As to “TAAACATTCTTATATAGTACCCATATTAAAATATAC [XGTACX_site8014]”, the “gcPBM binding intensity (ln)” value was found to be 7.58 ± 0.39.

As to “ATGAAAAAAAAAAAAAAAAAAAAAAAAAAAAAAATA [CACACA_negctrl_site1083]”, the “gcPBM binding intensity (ln)” value was 7.53 ± 0.42.

Regarding “ATTTTTTTGTATATATATGACTGGGGATATAATCAA [GTGCAC_negctrl_site274]”, the “gcPBM binding intensity (ln)” value came out at 7.87 ± 0.64.

“TATTATTTTTCATATGCATGCAAAAATAAAAAAATA [TGCATGCA_site350]”: the “gcPBM binding intensity (ln)” value stood at 8.11 ± 0.44.

Regarding “TATAAAAAAAAAAAAAAAAAAAAAAATATATATATA [CACACA_negctrl_site817]”, the “gcPBM binding intensity (ln)” value worked out at 9.27 ± 0.16.

As for “AAAAAAAAAAAAAATTGTACTTAAATATATATATAT [XGTACX_site7604]”, the “gcPBM binding intensity (ln)” value turned out to be 9.285 ± 0.078.
